Some of the results follow.

Here are results for eleven compounds from the antibiotic and cytotoxicity screens of Wong et al. (2023).

In the test the test system is HepG2. Kind of test: cytotoxicity call (relative viability < 0.9). The note with it: 10 µM.
Regarding `C[C@H](CO)N1C[C@H](C)[C@H](CN(C)Cc2ccc(C(F)(F)F)cc2)Oc2ccc(NC(=O)Nc3ccc(C(F)(F)F)cc3)cc2CC1=O`, the cytotoxicity call is “active”. Then `CC(C)NC(=O)Nc1cccc2c1O[C@@H](CN(C)C(=O)Nc1ccc3c(c1)OCO3)[C@@H](C)CN([C@H](C)CO)C2=O`, with “inactive”; and `C[C@@H]1CN([C@@H](C)CO)C(=O)c2c(c3ccccc3n2C)-c2ccccc2CO[C@H]1CN(C)CC1CCCCC1`, with “inactive”. On to `C[C@H](CO)N1C[C@H](C)[C@@H](CN(C)S(C)(=O)=O)Oc2ccc(NS(=O)(=O)c3ccccc3)cc2CC1=O`, for which the cytotoxicity call was “inactive”. Regarding `COc1cccc(NC(=O)N(C)C[C@H]2Oc3ncc(C#Cc4ccncc4)cc3C(=O)N([C@H](C)CO)C[C@H]2C)c1`, the cytotoxicity call is “active”.

`NCC[C@H]1CC[C@H](NC(=O)Cc2ccncc2)[C@@H](CO)O1`: the cytotoxicity call is “inactive”. The result for `Cc1noc(C)c1NC(=O)N(C)C[C@@H]1Oc2ccc(NC(=O)C3CC3)cc2C(=O)N([C@@H](C)CO)C[C@@H]1C` reads “inactive”; that for `COc1ccc(S(=O)(=O)N2C[C@H](O)COC[C@H]3O[C@H](CC(=O)NCCN4CCCCC4)CC[C@@H]32)cc1`, “inactive”. Regarding `COc1ccc(CN(C)C[C@@H]2OCCCC[C@H](C)Oc3ccc(NC(=O)Nc4cccc5ccccc45)cc3C(=O)N([C@@H](C)CO)C[C@@H]2C)cc1`, the cytotoxicity call was “inactive”. Then `C[C@@H]1CN([C@@H](C)CO)C(=O)c2cc(NC(=O)NC3CCCCC3)ccc2O[C@@H](C)CCCCO[C@@H]1CN(C)C(=O)Nc1ccc2c(c1)OCO2`, with “inactive”. With `Cc1noc(C)c1NC(=O)Nc1ccc2c(c1)C(=O)N([C@@H](C)CO)C[C@@H](C)[C@H](CN(C)S(=O)(=O)c1cccs1)OCCCC[C@H](C)O2`, the cytotoxicity call is “inactive”.
